Assay results taken from the RNAGym collection of RNA variant scans (doi:10.1073/pnas.2313332121).
Variants at the background level are over-represented here.

B1: TPR 5TU (parent)
chain: GGAUCUUCUCGAUCUAACAAAAAAGACAAAUCUGCCACAAAGCUUGAGAGCAUCUUCGGAUGCAGAGGCGGCAGCCUUCGGUGGCGCGAUAGCGCCAACGUUCUCAACUAUGACACGCAAAACGCGUGCUCCGUUGAAUGGAGUUUAUCAUG

Variants of: B1
Assay: polymerase ribozyme fitness, log enrichment relative to wild type (log ratio); higher = more active; in vitro selection for triplet polymerase activity
Method in brief: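 Mutant libraries for each subunit of a heterodimeric triplet polymerase ribozyme were made by PCR and then transcribed. Each library underwent one round of in vitro selection in triplicate: annealing with a biotinylated primer, the partner subunit and triplets, frozen incubation at −7 °C, gel excision of extended constructs, streptavidin-bead capture and RT-PCR. Input and output libraries were Illumina-sequenced, and only genotypes with ≥10 input reads and ≥1 read per output were kept. Fitness is the logarithm, base 2, of genotype enrichment over wild-type enrichment, computed from inverse-variance-weighted replicate averages.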

Variant | polymerase ribozyme fitness (log ratio)
A47C C93U | -1.69
A47C C103A G112A U135G | ≤ -4.2
A47C G48A G86C | ≤ -4.2
A47C G50A G65A C79U C114U | ≤ -4.2
A47C G50A U53A G83A G92C G143U | ≤ -4.2
A47C G50A U102C U146A | -2.55
A47C G50C | -4.1
A47C G50C C54A G86A U90C A107U | ≤ -4.2
A47C G50C C108A U146G | ≤ -4.2
A47C G58C A64U U104C A107G | ≤ -4.2
A47C G59C G86A | ≤ -4.2
A47C G59C U90A A106U A110C U139A | ≤ -4.2
A47C G65A C75U C76A U102A U130G | ≤ -4.2
A47C G65A C85A C129A G141U | ≤ -4.2
A47C G65C G88A C103A | ≤ -4.2
A47C G68A C76G G94A | ≤ -4.2
A47C G81C C99A U134G | -4.06
A47C G84C A91U | ≤ -4.2
A47C U53A G140A U144C | ≤ -4.2
A47C U55A A60G | -0.228
A47C U56A A60G C85U C96U A150U | -0.791
A47C U56A G65C G80U C103G | ≤ -4.2
A47C U56C G67U C75A U90A C93U | ≤ -4.2
A47C U61A G140U U145G | ≤ -4.2

Variant | polymerase ribozyme fitness (log ratio)
A47C U61C C93G C103G | ≤ -4.2
A47C U90G A119U G126A C131G U134G | ≤ -4.2
A47C U90G G94U G112A U127A G136C | ≤ -4.2
A47G A49C A52G G81U G83C U134A | ≤ -4.2
A47G A52C A73G C76G C87G A98G | ≤ -4.2
A47G A52U G84U G86C C114G U145A | ≤ -4.2
A47G A113C A119C A137G G140U | ≤ -4.2
A47G C51G A52U U53A U56C C57A A66C | ≤ -4.2
A47G C51U A66C C87U | ≤ -4.2
A47G C85G A106U A115U G141U | ≤ -4.2
A47G C87U C99U | -1.24
A47G C95U U101C C125U C129G U134A | ≤ -4.2
A47G C96U G124C | -1.06
A47G G50A C85U C99A G124C U127G | ≤ -4.2
A47G G50C U82G | ≤ -4.2
A47G G84C | -2.56
A47G G84U | -1.59
A47G G84U C149U | -3.35
A47G G84U U135A | -2.45
A47G G88U U90C A110U U139G U144A | ≤ -4.2
A47G U55A C85G C129G | ≤ -4.2
A47G U55G | 0.325
A47G U55G A98U U148A | ≤ -4.2
A47G U56A U134G | -2.17

Variant | polymerase ribozyme fitness (log ratio)
A47G U102C A142C C149U | ≤ -4.2
A47U A49G G141A U145A | ≤ -4.2
A47U A52C C57U G67A C96G | ≤ -4.2
A47U A52U G80C G117C | ≤ -4.2
A47U A66C C76G U78G U101G C125A | ≤ -4.2
A47U A66C G84A | ≤ -4.2
A47U A89G C116U G133U A138C | -4.12
A47U A97G A98G C116U A150U | 0.886
A47U C69U C93A A107C A115C | ≤ -4.2
A47U C75U | -1.41
A47U C79A G84U C118A G124A | ≤ -4.2
A47U C93G A106C | ≤ -4.2
A47U G48C | -1.39
A47U G48C G68A C105A A113G U135C | ≤ -4.2
A47U G48C G71C G94A C108G G124C G141A | ≤ -4.2
A47U G48U G50A C54U C79A G84U C87U | ≤ -4.2
A47U G48U G80C C93U | ≤ -4.2
A47U G50C C93A C96G | ≤ -4.2
A47U G59C C63U A64G G65U U77A | ≤ -4.2
A47U G68U | ≤ -4.2
A47U G84C C93U | ≤ -4.2
A47U G86A | -1.08
A47U G92U | -0.338
A47U G94A U134G | -1.69

Variant | polymerase ribozyme fitness (log ratio)
A47U U53C C93U C103A G124U A142G G143A | ≤ -4.2
A47U U56A C99G A121C | -2.02
A47U U101G C116G | -2.38
G48A A49C C57A G81C C93U G124C | ≤ -4.2
G48A A49C U53A G100A | ≤ -4.2
G48A A49U G70U C75A G88A | ≤ -4.2
G48A A52C C85U | -2.93
G48A A91G U102C U134C G141C | ≤ -4.2
G48A C54A G84C G143A | ≤ -4.2
G48A C54A U55G G58U A97G | -3.22
G48A C57A U144G | 0.472
G48A C72G | ≤ -4.2
G48A C75A U78C A147G | ≤ -4.2
G48A C85A A89U A98U A113G G117A | ≤ -4.2
G48A C96U A98G | -0.496
G48A C108U | ≤ -4.2
G48A G50A C93G A97U C149A | ≤ -4.2
G48A G50U C85U G140A U148A | ≤ -4.2
G48A G50U U61G C69U A91G | ≤ -4.2
G48A G70A G83A G143U | ≤ -4.2
G48A G80C C87G A107U A113U | ≤ -4.2
G48A G80C G94A C96U C99G | -3.97
G48A G84U A113C G124A U139A | ≤ -4.2
G48A G133U | -3.81

Variant | polymerase ribozyme fitness (log ratio)
G48A U53A C75U | ≤ -4.2
G48A U55A C96G A115G A119U A137C G141C A142C | ≤ -4.2
G48A U55A G58A C108U G117A | ≤ -4.2
G48A U55A U90G C96A | ≤ -4.2
G48A U55G G67A C114G A122C C131G | ≤ -4.2
G48A U61A A91C C131A U139C | ≤ -4.2
G48A U61A C105G | ≤ -4.2
G48A U135A | -0.864
G48C A49C A60G U61A A66G C87A | ≤ -4.2
G48C A49G U55G A66U C85U A97C G126C | ≤ -4.2
G48C A60G U61A C85U | ≤ -4.2
G48C A91G C105U A147G | ≤ -4.2
G48C C51U C69A C116G | ≤ -4.2
G48C C54A G58C A91U U104G A121U | ≤ -4.2
G48C C57A C75G G83U A106G A107G A113U | ≤ -4.2
G48C C57U C85U U90C C105U | ≤ -4.2
G48C C63U A142G | -1.03
G48C C69A C149U | -2.77
G48C C69U A137C U144C | ≤ -4.2
G48C C75A C96G C108U | ≤ -4.2
G48C C79G G81U U127G | ≤ -4.2
G48C C85A A120G | -2.75
G48C C87G G88C A91G A119U U134G | ≤ -4.2
G48C C125G | -0.571

Variant | polymerase ribozyme fitness (log ratio)
G48C G50C G88U C93U G126A G141U G143U | ≤ -4.2
G48C G50C U139G U144A | ≤ -4.2
G48C G68C C85A C96A | ≤ -4.2
G48C G84A A121G U134A G143A | -3.91
G48C G84C C85A A110U C125A | ≤ -4.2
G48C G94U C103U G140A | ≤ -4.2
G48C G141U | -1.8
G48C U53A G74C C85U C99U A119G A120G | ≤ -4.2
G48C U55A | -0.498
G48C U55A A107U U111G | ≤ -4.2
G48C U55A C96G U127C U134A | ≤ -4.2
G48C U55G C75A C93G | ≤ -4.2
G48C U61A A73C C79G G83C C87G C125U | ≤ -4.2
G48C U61A C69G G84U G126A | ≤ -4.2
G48C U61A C85U G92A C103A C105U | ≤ -4.2
G48C U61A U77A G126U | ≤ -4.2
G48U A49G C87U U130C U134G G136A | ≤ -4.2
G48U A52C G58U C79U G88U G126U | ≤ -4.2
G48U A52C U53A C57G G117U | ≤ -4.2
G48U A52U C93A C95U U145A | ≤ -4.2
G48U A106G | -1.48
G48U A142U | -2.92
G48U C75G G92U | ≤ -4.2
G48U C85A U104C C132A | ≤ -4.2

Variant | polymerase ribozyme fitness (log ratio)
G48U C95U C105G A115G A147U U151C | ≤ -4.2
G48U C118G | -0.339
G48U C118G U148G | ≤ -4.2
G48U G50A U56G C87A A106U | ≤ -4.2
G48U G50C C85G A98U C99U C149U | ≤ -4.2
G48U G92U A121C A150C | ≤ -4.2
G48U U53A U77G | ≤ -4.2
G48U U56A C63U C93U A107G | ≤ -4.2
A49C A52C A66G G86C A119G | ≤ -4.2
A49C A52C G68U G80C C87A A113U U134A | ≤ -4.2
A49C A52C U55A C93U C105U U127C | ≤ -4.2
A49C A52G G58C A91U A137U U145G | ≤ -4.2
A49C A52G G88U | ≤ -4.2
A49C A52U C57G G100A | ≤ -4.2
A49C A66C U102G | ≤ -4.2
A49C A73U | ≤ -4.2
A49C A73U A91U | ≤ -4.2
A49C A91C C108A G152U | ≤ -4.2
A49C A91G | ≤ -4.2
A49C A97U | ≤ -4.2
A49C A98G | ≤ -4.2
A49C A98U C116G A121U U148C | ≤ -4.2
A49C C51A A142C A150C | ≤ -4.2
